# The supplement of paper PMC3334620
# Whole data set: some 33,000 sequences, median “E-score (-0.5 to 0.5)” near -0.013, cut for the highest 2% near 0.3. This is one part of the list.
# Molecular target: T1, Msn1 (UniProt P22148)
# T1 sequence: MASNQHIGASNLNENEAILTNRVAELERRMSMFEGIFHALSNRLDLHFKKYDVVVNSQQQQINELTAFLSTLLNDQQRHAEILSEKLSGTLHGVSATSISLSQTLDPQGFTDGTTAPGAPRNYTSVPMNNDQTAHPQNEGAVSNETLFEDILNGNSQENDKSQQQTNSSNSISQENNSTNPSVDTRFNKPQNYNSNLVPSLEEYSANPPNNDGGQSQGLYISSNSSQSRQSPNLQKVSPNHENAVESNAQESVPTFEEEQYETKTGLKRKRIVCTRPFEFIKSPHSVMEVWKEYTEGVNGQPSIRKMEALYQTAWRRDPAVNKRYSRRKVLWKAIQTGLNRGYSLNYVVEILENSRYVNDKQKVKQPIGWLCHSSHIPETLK
# Assay: PBM E-score (8-mer binding enrichment) (E-score (-0.5 to 0.5)); higher = stronger / more preferred TF binding; most listed sequences are background and not binding sites
# Conditions: protein concentration: 200 nM; construct: GST-full length
# Summary of the method: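 PURExpress in vitro transcription/translation supplied GST-tagged yeast transcription factors, either full-length or DNA-binding domain. Applied at about 100-200 nM to universal all-10-mer Agilent arrays double-stranded by primer extension, the bound protein was detected with fluorescent anti-GST. E-scores, modified Wilcoxon-Mann-Whitney statistics, were given by the Universal PBM Analysis Suite to ungapped eight-base words pooled with their reverse complements after masliner normalisation.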
row,Sequence,PBM E-score
1,AGTCTCAG,0.0296
2,ATCTACTA,0.12
3,ACTGTTTA,-0.0587
4,GAGCACAC,-0.221
5,ATCTCGCG,0.117
6,CTTCCAAG,-0.154
7,GTTGCATA,-0.108
8,TGGCAGAA,0.0862
9,CCCTGTTC,-0.213
10,GATCCCCA,-0.118
11,CGAATCTA,0.0472
12,CAACTGGG,-0.122
13,AGTGCCTG,-0.141
14,AGCATGCC,-0.219
15,GGAAGTCA,-0.0194
16,CACGCTAA,-0.08
17,CGCCCGCA,-0.19
18,AATGCTTA,-0.166
19,AAACGAGA,0.104
20,GGGGTCAA,-0.022
21,CAGTTAAC,0.051
22,GCTGCCCC,-0.221
23,AGGCATGG,-0.184
24,ACCCATAA,0.0631
25,AGATCGAG,-0.00049

row,Sequence,PBM E-score
1,GCCCCCTA,-0.375
2,ATTCGTTA,0.00793
3,AATCTTGA,-0.107
4,ATTTTCCG,0.271
5,CGTAAATA,0.253
6,ATTGAGCG,-0.00095
7,CGGACTGC,0.0541
8,AATGCATG,0.113
9,ACTTTCTC,0.0833
10,GTCGATCA,-0.0383
11,GCCCGGTA,-0.117
12,GGTTTCAA,-0.042
13,CGCGTGGA,-0.0204
14,CGTGGCAG,-0.0253
15,GTTAGGGA,-0.0237
16,ATAGTGGG,-0.127
17,ACCACGCG,0.086
18,ATGACGAC,0.118
19,GTCAACCA,-0.108
20,CGTCATTA,-0.0022
21,ATCATCCC,-0.147
22,CGTTTATC,0.0699
23,AACCAACA,0.0364
24,ACTAAACA,0.169
25,AGGTGAGC,-0.277

row,Sequence,PBM E-score
1,ACCCCCTG,-0.374
2,GCCTGACC,-0.234
3,AGTGGTGC,-0.18
4,ACTCACGG,0.00759
5,CCGACGAA,0.249
6,CAGTAAGA,0.104
7,ACCGTGGA,-0.0621
8,AGTGACCG,-0.242
9,GCCTAGGC,-0.177
10,ACGTCTAG,0.174
11,CCTGGCTC,-0.173
12,TCCAAAAA,0.232
13,CAACGTCA,-0.0181
14,GAGACCGA,-0.0115
15,AACGAACA,0.127
16,GGCGCCGA,0.0516
17,AGCCTGCC,-0.0992
18,AAGACTTC,-0.136
19,CCGTCAGG,-0.019
20,ACTCCTGG,-0.274
21,CCGATACG,-0.0476
22,GTAATGGA,0.174
23,GACCATGC,0.0413
24,TGACTCCA,-0.305
25,TTAATAAA,0.294

row,Sequence,PBM E-score
1,CCCCTAAG,-0.293
2,GAATTGGA,0.0681
3,CGTTGCCC,-0.0849
4,CATGAACC,0.0529
5,CACGTAGC,-0.317
6,ATACAAAC,0.125
7,ATAGGCCG,-0.147
8,CACAGGTC,-0.124
9,GTACTTAA,0.0985
10,AACCGCGT,0.223
11,CTAGGAGA,-0.199
12,CACGTTCG,-0.174
13,ACTTCCCA,0.128
14,GCATCAAC,-0.0904
15,AAAATTTA,0.149
16,CCTGTAAG,-0.0196
17,CGAAAAAG,0.136
18,ACGCCCGA,0.0847
19,TATTGAGA,0.208
20,ACCGGCGG,-0.193
21,CCTTTAAG,-0.107
22,ACTGGCGG,-0.113
23,GTAAGTCA,0.164
24,CGGCCGAC,0.194
25,ACAGAGAA,-0.0246

row,Sequence,PBM E-score
1,CTAGGTGC,-0.295
2,CGACCGGA,-0.0896
3,GTGGAAGA,-0.0989
4,CCAGTAAA,0.013
5,GACTCTAA,-0.12
6,AGTATTCA,-0.0452
7,TCATCCCA,-0.056
8,TACATCCA,-0.0268
9,CGCGGTAC,0.0431
10,TCATAAGA,0.027
11,ACCGAGTG,-0.0955
12,TAATTTCA,0.25
13,CCTGGGCC,-0.332
14,AGGCTGCG,-0.0599
15,ACCAAAAG,0.179
16,AATGCAGC,-0.131
17,GGGGCATA,-0.174
18,CCGGATAG,0.133
19,AACGATTC,0.0798
20,ACTTTCGG,0.145
21,CAAGTCGG,0.0181
22,CTACACAG,-0.0164
23,GTAGGCAC,-0.217
24,ACCAATGC,-0.0458
25,CCGGAAAA,0.25

row,Sequence,PBM E-score
1,AGAATTGG,-0.0308
2,CGATATAA,0.0521
3,CCATCCGG,-0.251
4,ACTTCAAA,-0.00228
5,ACCCTTCG,-0.212
6,CAAAGTAA,-0.0884
7,AATTTGGA,0.156
8,AATTGTTG,0.068
9,CACTCATA,-0.0403
10,CGATGCCA,-0.127
11,ACAGATTG,-0.0858
12,GATAAAGA,-0.029
13,AAGGGCTC,-0.275
14,CAAACCGC,0.0708
15,ACGCGCAA,0.0758
16,GTGACTCA,0.0122
17,GCAGTCAC,-0.211
18,ACCACCTG,-0.104
19,ACACGACG,0.112
20,ATTTGTCA,0.46
21,ATGTAAGA,0.159
22,ACTTCCAA,-0.12
23,ATGCACAT,0.0144
24,CCGGGGAG,-0.119
25,ACCAGGGA,-0.144

row,Sequence,PBM E-score
1,ACTAGAAT,0.13
2,AACTATGT,0.0846
3,AATCAAGT,0.115
4,AGTACAGG,0.202
5,GCGAAAGC,-0.0509
6,ATAATGTC,0.427
7,AGCATTTG,0.121
8,AAAGAAGG,-0.0898
9,CCGTAACA,-0.0464
10,CGGCTGGC,-0.23
11,AAACTGTC,0.151
12,CTTGTTAA,-0.0116
13,AACTGCCT,0.0547
14,CGTACGAA,0.0187
15,ATCCCCTC,-0.234
16,GAAGAAGA,-0.129
17,CTGCTGTA,-0.182
18,GAGATGTA,0.0478
19,CCTGCTTA,-0.103
20,AAACTGCT,-0.222
21,CGGGGTGC,-0.0594
22,CTACGGTA,-0.133
